According to article PMC4336329 (PLoS ONE, 2015):
The campaign covered roughly 310,000 compounds. About 14,000 (4.5%) showed an effect of 50% or more. The effect is printed as a negative number. This is one part of the list.

What follows are compounds tested against human ether-à-go-go-related gene (hERG) potassium channel (human, UniProt Q12809) (assay: primary screen, population patch clamp on CHO cells stably expressing hERG).
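Also: peak tail current of the secondary pulse compared with the same well before compound.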

human ether-à-go-go-related gene (hERG) potassium channel, sequence (Q12809 whole entry, looked up): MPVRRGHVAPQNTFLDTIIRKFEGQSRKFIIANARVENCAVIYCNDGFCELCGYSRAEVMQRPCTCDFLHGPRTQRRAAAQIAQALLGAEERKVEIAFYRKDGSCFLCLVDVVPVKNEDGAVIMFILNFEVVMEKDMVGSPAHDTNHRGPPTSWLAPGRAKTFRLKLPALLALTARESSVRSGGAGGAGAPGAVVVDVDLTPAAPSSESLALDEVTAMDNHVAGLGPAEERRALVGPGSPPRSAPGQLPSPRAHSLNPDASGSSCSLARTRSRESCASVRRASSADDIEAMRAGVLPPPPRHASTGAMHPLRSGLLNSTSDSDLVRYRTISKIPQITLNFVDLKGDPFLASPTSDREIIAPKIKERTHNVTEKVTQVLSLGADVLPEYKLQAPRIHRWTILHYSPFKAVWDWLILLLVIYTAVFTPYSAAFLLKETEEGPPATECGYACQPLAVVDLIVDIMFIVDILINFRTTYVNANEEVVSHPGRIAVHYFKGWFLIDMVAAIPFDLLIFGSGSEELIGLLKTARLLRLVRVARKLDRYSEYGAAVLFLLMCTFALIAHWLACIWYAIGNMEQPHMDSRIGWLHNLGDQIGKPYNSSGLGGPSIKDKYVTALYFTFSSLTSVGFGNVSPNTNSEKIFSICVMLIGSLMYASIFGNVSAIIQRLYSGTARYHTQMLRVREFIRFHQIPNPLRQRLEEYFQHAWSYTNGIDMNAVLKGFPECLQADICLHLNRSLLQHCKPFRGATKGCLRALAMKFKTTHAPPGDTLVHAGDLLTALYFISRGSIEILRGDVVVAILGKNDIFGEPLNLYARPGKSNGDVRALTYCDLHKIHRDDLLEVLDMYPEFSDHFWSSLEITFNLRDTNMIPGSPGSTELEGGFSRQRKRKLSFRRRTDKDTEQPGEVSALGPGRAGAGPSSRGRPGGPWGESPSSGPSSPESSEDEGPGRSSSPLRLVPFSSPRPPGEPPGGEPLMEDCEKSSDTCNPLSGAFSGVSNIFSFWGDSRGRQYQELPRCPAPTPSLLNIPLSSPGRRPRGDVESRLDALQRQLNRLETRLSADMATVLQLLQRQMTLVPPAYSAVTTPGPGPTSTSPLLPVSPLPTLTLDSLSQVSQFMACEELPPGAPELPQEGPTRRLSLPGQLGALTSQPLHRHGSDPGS

Row | Compound | hERG current change (%, negative = inhibition) at 10uM [%]
1 | O=C(O)c1ccc2c(c1)NC(=O)C(N1CCCC1)S2 (stereo not shown) | 12
2 | Cc1cc2c([nH]c3ccccc32)c2c1OC(C)(C)C=C2 | 5.61
3 | COc1ccccc1CN(Cc1nc2ccccc2c(=O)[nH]1)C(=O)Nc1cccc(C)c1 | -9.59
4 | Cc1ccc(CS(=O)(=O)c2ncc(Cl)c(C(=O)Nc3nnc(C)s3)n2)cc1 | 3.35
5 | CC(=O)C1=C(C)NC(SCC(=O)c2ccc(C)cc2)=C(C#N)C1c1ccco1 (stereo not shown) | -9.08
6 | COc1cccc(CNCCNC(=O)c2ccco2)c1OC.O=C(O)C(=O)O | -6.05
7 | CCC1CCc2c([nH]c3ccccc3c2=O)O1 (stereo not shown) | -2.41
8 | COc1ccccc1N1CCN(C(=O)CSc2ncnc3scc(-c4ccccc4)c23)CC1 | 1.5
9 | Clc1nc2ccccc2cc1/C=N/Nc1nc2ccccc2[nH]1 | 11.6
10 | COc1ccc(-c2ccc(-c3nnc(Cc4ccc(OC)c(OC)c4)o3)cc2)cc1 | -11
11 | O=C1c2cccc(OCc3ccc(F)cc3)c2CCN1Cc1ccccc1 | 4.56
12 | COc1cc(CN2CCN(c3cccc(Cl)c3)CC2)cc(OC)c1OC | -35.7
13 | COC(=O)C1=C(c2ccc(F)cc2OCc2ccccc2)C[C@@H]2CC[C@H]1N2C(=O)N1CCOCC1 | -15.6
14 | Cc1ccc(S(=O)(=O)NNC(=O)c2ccccc2-n2cccc2)cc1 | 0.548
15 | COc1ccc(N(CN2C(=O)C3C4C=CC(C4)C3C2=O)C(=O)c2ccco2)cc1 (stereo not shown) | -4.13
16 | CCOC(=O)c1c(S(=O)(=O)NCC2CCN(CCc3cccs3)CC2)c(C)n(C)c1C | -49.5
17 | Cc1cccc(OCCCC(=O)NCCc2ccccc2)c1 | 2.83
18 | Cc1cc(C)c(S(=O)(=O)Nc2ccc(C(=O)O)cc2)cc1S(=O)(=O)Nc1ccc(C(=O)O)cc1 | 10.8
19 | Cc1cc(C)n(-c2nnc(C)n2NS(C)(=O)=O)n1 | 14.6
20 | COCCNC(=O)c1ccc(S(=O)(=O)c2ccc(Cl)cc2)c(NC(C)=O)c1 | 9.68
21 | Cc1cc(N/N=C/c2ccc(F)cc2)nc(-n2nc(C)cc2C)n1 | 17.1
22 | Cc1ccc(Cl)cc1NC(=O)COC(=O)Cn1cnc2c1c(=O)n(C)c(=O)n2C | 0.977

Row | Compound | hERG current change (%, negative = inhibition) at 10uM [%]
23 | COCCCNC(=O)Cn1cc2c(n1)CCCCC2 | 16.8
24 | Cn1nnnc1SCC(=O)Nc1cccc(S(=O)(=O)N2CCCC2)c1 | 23.2
25 | CC(C)O/N=C1\C(=O)N(c2ccccc2)c2ccccc21 | -15.5
26 | Cn1cc(Br)c(C(=O)Nc2sc3c(c2C(N)=O)CCCC3)n1 | 22.8
27 | O=C1CC(c2ccccc2)n2nc(NC(=O)c3ccccn3)nc2N1 (stereo not shown) | -7.8
28 | COC(=O)C1CCN(C(=O)Cn2nnc(-c3ccccc3)n2)CC1 | 14.4
29 | Cc1cc(C)n(-c2ccc(C(=O)Nc3ccc(N4CCOCC4)cc3)cc2)n1 | 7.47
30 | O=C(O)CCCn1c(=O)[nH]c2ccccc2c1=O | 4.41
31 | COc1cc(CNc2ccc3[nH]c(=O)[nH]c3c2)ccc1OCc1ccc(F)cc1 | 13.3
32 | O=C1C=CC(=O)N1CCCCCCN1C(=O)C=CC1=O | -21.5
33 | COc1ccc2nc(SCc3nc(N)nc(Nc4ccccc4)n3)[nH]c2c1 | -47.1
34 | CCC(C(=O)N/N=C(\C)c1cccnc1)c1ccccc1 (stereo not shown) | 10.4
35 | COc1cc2c(cc1OC)C1C(C(=O)Nc3ccccc3N3CCN(C)CC3)c3ccccc3C(=O)N1CC2 (stereo not shown) | -26.8
36 | O=C(CN1C(=O)NC2NC(=O)NC21)N/N=C/c1ccc(F)cc1 (stereo not shown) | 18.3
37 | Cc1nc2cc(NC(=O)Nc3nccs3)ccc2n1C | -6.22
38 | Nc1cc(Cl)cc(C(=O)O)c1Cl | 15.9
39 | c1ccc(-c2csc(-c3ccc(-c4csnn4)cc3)n2)cc1 | 17.6
40 | COc1cc2c(cc1OC)C(c1ccncc1)CC(=O)N2 (stereo not shown) | 5.44
41 | CCOC(=O)c1cc2c(=O)n3ccccc3nc2n(Cc2ccco2)c1=NC(=O)c1cccc(OC)c1 | -43.8
42 | Fc1ccc(-c2nnc(Cc3nnc(-c4ccc(F)cc4)o3)o2)cc1 | 10.8
43 | COc1ccc(CNC(=O)C2CCN(C(=O)c3ccccc3)CC2)cc1 | -2.46
44 | COC(=O)c1ccc(COC(=O)CNS(=O)(=O)c2ccccc2)cc1 | 7.79

Row | Compound | hERG current change (%, negative = inhibition) at 10uM [%]
45 | O=C(CSc1nnnn1-c1cccnc1)NCc1cccs1 | 9.62
46 | COc1ccc(N(CC(=O)NC2CCCCCC2)S(=O)(=O)c2ccccc2)cc1Cl | 11.3
47 | COc1ccc(C(=O)N/N=C/c2ccc(OC)c(CN3CCc4cc(OC)c(OC)cc4C3C)c2)cc1 (stereo not shown) | -76
48 | N#Cc1c(-c2ccccc2)nc2n(c1=O)CCS2 | 5.34
49 | Cc1cc2c(c(=O)o1)C(C13C=CC(CC1)C3)C(C#N)=C(N)O2 (stereo not shown) | -2.83
50 | CCCCn1nnnc1SCC(=O)N1CCN(C(=O)c2ccco2)CC1 | -48.5
51 | Cc1[nH]c2ccc(S(N)(=O)=O)cc2c1C | 12.2
52 | Cc1cc([N+](=O)[O-])ccc1Nc1nc2ccccc2n2cnnc12 | 4.48
53 | CS(=O)(=O)/C(C#N)=C/c1c(-c2ccccc2)nc2n1CCS2 | 1.34
54 | O=C(CCn1c(=O)oc2ccccc21)NCCN1CCc2ccccc2C1 | -31.5
55 | Cc1ccc(S(=O)(=O)NNC(=S)Nc2ccccc2)cc1 | 3.05
56 | CN(C)c1ccc(C(CNC(=O)c2ccco2)N2CCCC2)cc1 (stereo not shown) | 10
57 | COc1ccc(S(=O)(=O)N(CC(=O)NCC2CCCO2)c2ccccc2)cc1OC (stereo not shown) | 8.74
58 | CCOc1ccccc1C(=O)N(C)Cc1cc2ccccc2[nH]c1=O | 5.8
59 | CCCCn1c(=O)[nH]c(=O)c2c1nc(-c1ccc(OCCC)c(OCC)c1)n2CCOC | -22.6
60 | O=c1nc(/C=C/c2cccn2-c2ccc([N+](=O)[O-])cc2)cc(C(F)(F)F)[nH]1 | 6.29
61 | O=C(O)COCc1nc2ccccc2s1 | -7.92
62 | CCOc1ccc(NC(=O)CN(c2ccc(OC)cc2)S(C)(=O)=O)cc1 | 2.36
63 | COc1ccc(NC(=O)C2=CCN(S(=O)(=O)c3ccccc3)CC2)cc1OC | -32.6
64 | CCC(c1nnnn1C1CCCC1)N1CCC(C(N)=O)CC1 (stereo not shown) | 17.7
65 | COc1ccc(-c2nc(C#N)c(NCc3ccccc3Cl)o2)cc1OC | 5.43
66 | O=C1[C@@H]2CSCN2C(=O)CN1Cc1ccc(F)cc1 | 6.06

Row | Compound | hERG current change (%, negative = inhibition) at 10uM [%]
67 | Cc1ccc(NS(=O)(=O)c2ccc3c(c2)c(=O)n(C)c(=O)n3C)cc1F | -15.5
68 | NC(C(=O)O)C1CC(Cl)=NO1 (stereo not shown) | 7.96
69 | CCN(CC)C(=O)Cn1cc(C(=O)C(=O)NCCc2ccc(S(N)(=O)=O)cc2)c2ccccc21 | -7.14
70 | COc1ccc(C(CNC(=O)COc2ccccc2C#N)N2CCOCC2)cc1 (stereo not shown) | -1.14
71 | C=COCCNC(=S)N1CCOCCOCCN(C(=S)NCCOC=C)CCOCCOCC1 | 10.4
72 | N#Cc1c(-c2ccc(Cl)cc2Cl)nc2n(c1=O)CCS2 | -7.97
73 | COc1cc(C2=NOC(C(=O)NCc3cccnc3)C2)cc(OC)c1OC (stereo not shown) | 6.74
74 | CCOC(=O)c1c(C)[nH]c(C)c1S(=O)(=O)N(C)CC(=O)Nc1ccccc1 | -0.28
75 | N#CCC(=O)N/N=C/c1c(-c2ccccc2)n(-c2ccccc2)c2ccccc12 | -1.17
76 | C=CCN1C(=O)C(O)(CC(=O)c2ccco2)c2cc(Br)ccc21 (stereo not shown) | 11.2
77 | O=C1CC(N2CCN(c3ccccn3)CC2)C(=O)N1c1ccc(Cl)cc1 (stereo not shown) | 4.46
78 | COc1ccc(CCNC(=O)CCn2c(=O)[nH]c3cc(OC)c(OC)cc3c2=O)cc1OC | -24.4
79 | CCOC(=O)C1(CCOc2ccccc2)CCN(Cc2cc(OC)ccc2OC)CC1 | -73.2
80 | O=C(OCC(=O)N1CCc2ccccc2C1)c1ccc(OC(F)F)cc1 | -80.2
81 | O=C(NCc1ccc(F)cc1)C1CCN(S(=O)(=O)c2cccnc2)CC1 | -1.49
82 | COc1ccc(C(C)NC(=O)c2ccccc2Br)cc1OC (stereo not shown) | 10
83 | O=c1cc(O)nc(SCc2ccccc2)n1-c1ccccc1 | 8.64
84 | Cc1cccc(N(CC(=O)NC(C)(C)C)C(=O)CCC(=O)Nc2nccs2)c1 | -1.32
85 | COc1ccc(C(=O)Nc2nc(-c3ccccc3)c(C(C)=O)s2)c(OC)c1 | 31.2
86 | CN(CCc1ccccn1)C(=O)CCC1CCCN(C(=O)c2ccccn2)C1 (stereo not shown) | 21.8
87 | COc1ccc(Cc2nnc(SCC(=O)N3CCCC(C)C3)o2)cc1 (stereo not shown) | 14.8
88 | Cc1c(NC(=O)C2C3C=CC(C3)C2C(=O)O)c(=O)n(-c2ccccc2)n1C (stereo not shown) | 14.2
